Laboratory results as given in PubChem BioAssay AID651820 (National Center for Advancing Translational Sciences (NCATS), 2012).
Out of some 340,000 compounds screened, about 12,000 (3.5%) were called active. Inconclusive means that the source gave no clear call. Such entries were picked first, then a sample of the others. Calls follow the shape of the dose curve; as a rule, active = well fitted inhibition curve with a large enough effect; inconclusive = small, poorly fitted or top-dose-only effect, or another doubt; inactive = no such curve, though single readings can be large or run the other way. No potency is given beside an inconclusive call; the fits are too rough.

Assay: qHTS Assay for Inhibitors of Hepatitis C Virus (HCV)
Conditions: Huh7.5.1 HCVcc-Cre (HCVcc is cell-culture hepatitis C virus) infection, luciferase reporter, 44 h; activity change, negative = inhibition: at 41.8 µM (top of the series) unless noted
Outline: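 Reporter virus HCVcc-Cre (~0.5 moi) infects cells exposed to compound; seeding density 1,000 cells/well with 4 h settling beforehand. Luminescence, 15 sec read, taken 44 h post-infection following a 15 min RT substrate incubation.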
% is scaled to controls: 0 for no effect and ±100 for the full control effect; potency is read from the fitted curve at half-maximal effect; tags tell the direction and shape of the fitted curve.

Row | Compound | activity change, negative = inhibition | Potency
1 | Cc1ccc2nc(N3C(=O)C(O)=C(C(=O)c4ccc(C)o4)C3c3cccc(O)c3)sc2c1 (configuration not stated) | inactive: -15.2% | 
2 | CCOC(=O)C1(CC2CC2)CCN(Cc2cnc(-c3ccc(OC)cc3)nc2)CC1 |  | inconclusive [inhibitor, single point]
3 | COc1ccccc1-c1noc(-c2ccccc2C(=O)Nc2cccnc2)n1 |  | active: 11.2 µM
4 | O=C(Nc1cccc(NC(=O)c2cccs2)c1)c1ccc(F)cc1 |  | inconclusive [inhibitor, partial curve]
5 | COc1ccc(-n2nc(C(=O)NCC(=O)N3CCN(c4ccccc4)CC3)c3ccccc3c2=O)cc1OC | inactive: -22.7% | 
6 | CC(=O)Nc1ccc(C(=O)CSc2nnc(Cc3ccccc3)o2)cc1 |  | inconclusive [inhibitor, single point]
7 | Cc1cc(C)nc(SCc2ccc(C(=O)N/N=C3\CC(C)CC(C)(C)C3)cc2)n1 (configuration not stated) |  | inconclusive [inhibitor, full curve]
8 | COc1cc2c(C#N)c(N3CCCCC3)nc(N)c2c(N)n1 |  | inconclusive [inhibitor, full curve, poor fit]
9 | CC(C)N1CCc2c(sc(NC(=O)C3CCCCC3)c2C(N)=O)C1 |  | inconclusive [inhibitor, partial curve]
10 | COC(=O)c1c(NC(=O)CSc2nnnn2-c2ccccc2)sc2c1CCCC2 |  | inconclusive [inhibitor, single point]
11 | CCOC(=O)C1CCCN(C(=O)CCc2nc3sc4c(c3c(=O)[nH]2)CCCC4)C1 (configuration not stated) | inactive: -13% | 
12 | Cc1nn(-c2ccccc2)c(C)c1CCC(=O)O | inactive: 16.2% | 
13 | O=C(Cn1ccsc1=NC(=O)C(F)(F)F)c1ccccc1 | inactive: -1.43% | 
14 | Cc1ccc(S(=O)(=O)N2CCC(=O)N(CCOCc3ccc(F)cc3)CC2)cc1 |  | inconclusive [inhibitor, single point]
15 | CCC(=O)Nc1nnc(SCC(=O)N2c3ccccc3CC2C)s1 (configuration not stated) |  | inconclusive [inhibitor, single point]
16 | CN(C)c1ccc(NC2=C([N+](=O)[O-])CS(=O)(=O)C2)cc1 |  | inconclusive [inhibitor, single point]
17 | Cc1ccc(C(=O)OCc2ccc3c(c2)OCO3)cc1S(=O)(=O)N1CCCCC1 |  | inconclusive [inhibitor, full curve]
18 | Cc1nnc(SCC(=O)N2c3ccccc3C(C)(c3ccccc3)CC2(C)C)s1 (configuration not stated) |  | inconclusive [inhibitor, single point]
19 | O=C(NCc1ccccc1)C1CCN(S(=O)(=O)c2ccc(N3CCCC3=O)cc2)CC1 |  | inconclusive [inhibitor, full curve, poor fit]
20 | COc1ccc(CCN=c2c([N+](=O)[O-])nn(-c3cccc(C)c3)n2O)cc1OC |  | inconclusive [inhibitor, partial curve]
21 | CCCCCCSc1ccc([C@H]2N[C@@](CC(C)C)(C(=O)OC)[C@H]3C(=O)N(CC)C(=O)[C@@H]23)cc1 |  | inconclusive [inhibitor, full curve]
22 | CNS(=O)(=O)c1ccc(NC(=O)C(CCSC)NC(N)=O)cc1 (configuration not stated) |  | inconclusive [inhibitor, single point]
23 | O=C(C(Cl)Cl)N1c2ccccc2OCC1c1ccccc1 (configuration not stated) |  | active: 12.6 µM
24 | Cn1nc(C(=O)Nc2cc(Cl)ccc2N2CCCC2)c2ccccc2c1=O |  | inconclusive [inhibitor, single point]

Row | Compound | activity change, negative = inhibition | Potency
25 | COc1ccccc1NC(=O)NCc1ccc(C)n1C |  | inconclusive [inhibitor, single point]
26 | C/C(CC(=O)Nc1ccc2ccccc2c1)=N\NC(=O)c1ccc(O)c(O)c1 | inactive: -4.5% | 
27 | COc1ccccc1-c1noc(-c2ccccc2C(=O)N2CCOCC2)n1 |  | inconclusive [inhibitor, full curve, poor fit]
28 | CC(C)Cc1nc2sc3c(SCC(N)=O)ncnc3c2c2c1CCC2 | inactive: 1.22% | 
29 | O=C1c2ccccc2-c2nc3ccccc3n21 |  | inactive
30 | O=C(CC(=O)Nc1ccc(Cl)c(Cl)c1)N/N=C/c1ccc(O)cc1 |  | inconclusive [inhibitor, single point]
31 | CN(C)c1ccc(C(CN)c2c[nH]c3ccccc23)cc1 (configuration not stated) |  | inconclusive [inhibitor, partial curve]
32 | COc1ccc(-c2ccc(SCC(=O)NCc3ccc4c(c3)OCO4)nn2)cc1OC |  | active: 2.82 µM
33 | CCCN1CCN(CCCNC(=O)CN2C(=O)c3cccnc3Oc3ccc(Cl)cc32)CC1 | inactive: 24.2% | 
34 | Cc1nc2sccn2c(=O)c1S(=O)(=O)N1CCN(c2ccc(F)cc2)CC1 | inactive: -6.08% | 
35 | Cc1ccc(Nc2cc(C)nc(-c3ccccc3O)n2)cc1 |  | inconclusive [inhibitor, partial curve]
36 | Cn1nc(-c2ccccc2)c(CO)c1Oc1cccc(C(F)(F)F)c1 |  | inconclusive [inhibitor, single point]
37 | COc1cccc(NC(=O)CN(C)C(=O)c2cn(-c3ccccc3)nc2-c2cccs2)c1 |  | inconclusive [inhibitor, single point]
38 | Cc1nnc(NC(=O)c2cc(S(=O)(=O)N3CCCCC3)ccc2Cl)s1 |  | active: 11.2 µM
39 | Cc1ccc(NC(=O)c2cc(-c3ccco3)on2)cc1C | inactive: -6.39% | 
40 | CC(OC(=O)c1ccco1)C(=O)Nc1nc(-c2ccccc2)cs1 (configuration not stated) |  | inconclusive [inhibitor, full curve, poor fit]
41 | O=C(C1CC(=O)N(C2CCCC2)C1)N1CCN(c2cccc(Cl)c2)CC1 (configuration not stated) |  | inconclusive [inhibitor, single point]
42 | CCCCCNC(=O)c1cccc(S(=O)(=O)N2CC3(C)CC2CC(C)(C)C3)c1 (configuration not stated) |  | inconclusive [inhibitor, single point]
43 | CCSc1nc2c(c(=O)n1-c1ccc(F)cc1)SCC2 | inactive: -7.35% | 
44 | CC(C)c1ccc2c(c1)C(N1CCN(C)CC1)Cc1cccnc1S2 (configuration not stated) |  | inconclusive [inhibitor, single point]
45 | CN(C)c1ccc(C(=O)Nc2nc3c(s2)CCCC3)cc1 |  | active: 11.2 µM
46 | O=C(Nc1cccc(C(=O)N2CCCCC2)c1)c1ccccc1Br | inactive: 3.3% | 
47 | CCOCc1c(C(=O)N2CCN(CCOc3ccc(Cl)cc3)CC2)oc2ccccc12 |  | active: 5.62 µM
48 | CCCOc1ccc(C2NC(=O)NC(c3ccccc3)=C2C(C)=O)cc1OCC (configuration not stated) |  | inconclusive [inhibitor, single point]

Row | Compound | activity change, negative = inhibition | Potency
49 | CC1CCCN(C(=O)N2c3ccccc3Sc3ccccc32)C1 (configuration not stated) | inactive: -18.7% | 
50 | O=C(NC(=S)Nc1ccc(N2CCN(C(=O)c3ccccc3)CC2)cc1)c1cccs1 |  | active: 31.6 µM
51 | O=C(Nc1ccccc1-c1ccccc1)C(c1ccccc1)c1ccccc1 |  | inconclusive [inhibitor, single point]
52 | Cn1c(SCC(=O)N=Nc2c(O)[nH]c3ccccc23)nc2ccccc21 | inactive: -27.3% | 
53 | CCOC(=O)c1ccc(Oc2nc(NC)nc(Nc3ccccc3)n2)cc1 |  | inconclusive [inhibitor, partial curve]
54 | Cc1cccc(CSC(Nc2ccc(F)cc2)=C(C#N)C#N)c1 |  | active: 11.2 µM
55 | COc1ccc(NC(=O)c2cc(S(=O)(=O)N3CCc4ccccc43)cn2C)cc1 | inactive: -16.5% | 
56 | COC(=O)COc1ccc(S(=O)(=O)NCCC2=CCCCC2)cc1 | inactive: 11.9% | 
57 | COc1ccc(C(=O)C2CCCN(Cc3cnc(N4CCOCC4)s3)C2)c(OC)c1 (configuration not stated) |  | inconclusive [inhibitor, partial curve, poor fit]
58 | COC(=O)C1=C(C)NC(=O)/C1=C\c1cc(C)n(-c2cccc(C)c2)c1C |  | inconclusive [inhibitor, single point]
59 | O=C(COc1ccccc1)NCCc1cnc[nH]1 |  | inconclusive [inhibitor, single point]
60 | COc1ccc(OCC(=O)NNC(=O)c2cccc(O)c2)cc1 | inactive: 8.72% | 
61 | O=C(Cc1ccccc1)N1CCN(C/C=C/c2ccccc2)CC1 |  | inconclusive [inhibitor, single point]
62 | C/C(=N\NC(=O)c1ccc(O)cc1)c1cccc(NC(=O)c2ccc(Cl)cc2)c1 | inactive: -22.7% | 
63 | Cc1cccc(Nc2nc(N)c([N+](=O)[O-])c(N3CCN(C)CC3)n2)c1 |  | inconclusive [inhibitor, single point]
64 | O=C(Nc1ccc(Cl)cc1)Nc1ccc(Cl)c(Cl)c1 |  | inconclusive [inhibitor, partial curve]
65 | O=C(CC1SC(=Nc2ccc(O)cc2)NC1=O)Nc1ccccc1 (configuration not stated) | inactive: -3.15% | 
66 | COc1ccc(C(=O)NC2CC2)cc1OC1CCN(Cc2cc(C)c(C)cc2C)CC1 |  | inconclusive [inhibitor, single point]
67 | O=[N+]([O-])c1cc(/C=N/O)ccc1N1CCCC1 |  | inconclusive [inhibitor, single point]
68 | N#Cc1c(-c2ccco2)cc(C2CC2)nc1N |  | active: 25.1 µM
69 | CC(=O)C1=C(C)OC(N)=C(C#N)C1c1cc2cccc(C)c2nc1Cl (configuration not stated) | inactive: 13% | 
70 | Cc1cc(N)n(-c2ccc3ccccc3c2)n1 |  | inconclusive [inhibitor, partial curve, poor fit]
71 | CCN(C[C@H]1N[C@@](Cc2ccccc2)(C(=O)OC)[C@H]2C(=O)N(Cc3ccccc3)C(=O)[C@@H]12)C(=O)Nc1ccc(F)cc1 |  | inconclusive [inhibitor, single point]
72 | COc1ccc(C(=O)N2CCC(n3nccc3NC(=O)C3CC3)CC2)c(OC)c1OC | inactive: 7.99% | 
